In all, about 18,000 sequences were measured (“TetR repression strength (sort-seq, GFP reporter)”: median about 0.23, highest 2% from about 0.68 on). This is one part of the list.

This test deals with TetR (class B, Tn10) (UniProt P04483). Nature of the test: TetR repression strength (sort-seq, GFP reporter) (relative to tetO2 = 1); higher = stronger repression. Particulars: E. coli. In short, it runs like this: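 Three independent transformations of E. coli SIG10-MAX were made with a low-copy plasmid library randomizing eight operator positions between a constitutive promoter and sfGFP, with constitutive TetR. Following 5 h at 37 °C in LB plus 50 µg/mL chloramphenicol, 10^6 cells went through FACS into 13 fluorescence bins, and each bin was sequenced by Illumina. Repression strength was defined as the top bin index plus one minus the read-weighted mean bin, divided by the unaltered operator's value. Averages included only members reaching ≥30 reads in all replicates with a CV ≤0.5.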
UniProt P04483, sequence (P04483 whole entry): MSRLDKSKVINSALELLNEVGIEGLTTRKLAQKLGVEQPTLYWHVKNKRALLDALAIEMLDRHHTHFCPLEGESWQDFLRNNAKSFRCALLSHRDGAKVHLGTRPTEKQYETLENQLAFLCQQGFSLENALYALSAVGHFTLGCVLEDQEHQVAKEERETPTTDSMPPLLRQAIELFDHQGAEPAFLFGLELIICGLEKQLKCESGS
In the case of TCCCACAAAGTACGGGAGA, the TetR repression strength is 0.102.

As to TCCCAGGGAGTAGTTGAGA, the TetR repression strength stood at 0.0889.

In turn, TCCCGGAGAGTAGGAGAGA displayed a TetR repression strength of 0.155.

For the sequence TCCCCGGGAGTTTTGGAGA, the TetR repression strength came out at 0.232.

In the case of TCCCCGTAAGTGCTAGAGA, the TetR repression strength turned out to be 0.378.

TCCCATTTAGTATGCGAGA displayed a TetR repression strength of 0.207.

The sequence TCCCAATCAGTTTGAGAGA came in with a TetR repression strength of 0.144.

The sequence TCCCGCGCAGTGTTTGAGA showed a TetR repression strength of 0.207.

TCCCAAAGAGTGTACGAGA displayed a TetR repression strength of 0.133.

In turn, TCCCAGCTAGTGCGAGAGA returned a TetR repression strength of 0.0634.

TCCCAACGAGTGCGGGAGA: the TetR repression strength was determined as 0.366.

Consider TCCCACCAAGTGGCGGAGA, for which the TetR repression strength came out at 0.185.

For TCCCACAAAGTATGAGAGA, the TetR repression strength was 0.37.

Turning to TCCCCTGTAGTTGACGAGA, the TetR repression strength was found to be 0.0204.

Consider TCCCAGGTAGTTCCTGAGA, for which the TetR repression strength was 0.628.

Consider TCCCAGTTAGTAAGAGAGA, for which the TetR repression strength was found to be 0.102.

Sequence TCCCACGTAGTCAGTGAGA displayed a TetR repression strength of 0.0274.

TCCCGATCAGTTTTTGAGA returned a TetR repression strength of 0.0558.

In turn, TCCCTCGGAGTATGGGAGA showed a TetR repression strength of 0.181.

Consider TCCCGGAGAGTATGCGAGA, for which the TetR repression strength worked out at 0.159.

Turning to TCCCGTACAGTGTTAGAGA, the TetR repression strength came to 0.284.

TCCCTTCGAGTAGTGGAGA gave a TetR repression strength of 0.371.

As for TCCCGGGGAGTGGGGGAGA, the TetR repression strength came to 0.3.

Take TCCCTATTAGTTTCCGAGA: the TetR repression strength turned out to be 0.348.

TCCCAATGAGTATGAGAGA yielded a TetR repression strength of 0.217.

TCCCATTGAGTGTACGAGA registered a TetR repression strength of 0.196.

Turning to TCCCGAGGAGTTGGCGAGA, the TetR repression strength was 0.14.

As for TCCCAGCTAGTACTCGAGA, the TetR repression strength came to 0.18.

As to TCCCTCTAAGTAATGGAGA, the TetR repression strength worked out at 0.529.

TCCCGAGTAGTGAGAGAGA gave a TetR repression strength of 0.418.

Regarding TCCCATTGAGTGCCGGAGA, the TetR repression strength was 0.301.

Sequence TCCCAGAAAGTGGTGGAGA displayed a TetR repression strength of 0.138.

Turning to TCCCTGTTAGTGGGGGAGA, the TetR repression strength was found to be 0.737.

Consider TCCCTCGGAGTCAACGAGA, for which the TetR repression strength worked out at 0.249.

For TCCCGTGCAGTGTTGGAGA, the TetR repression strength is 0.67.

TCCCTATAAGTGGGTGAGA showed a TetR repression strength of 0.571.

The sequence TCCCTTGCAGTGAGGGAGA came in with a TetR repression strength of 0.251.

In turn, TCCCCACGAGTCATTGAGA came in with a TetR repression strength of 0.25.

TCCCTCTCAGTACATGAGA gave a TetR repression strength of 0.269.

With TCCCTGCTAGTGCCTGAGA, the TetR repression strength was 0.167.

In turn, TCCCCTCAAGTTAATGAGA came in with a TetR repression strength of 0.126.

Take TCCCCTCTAGTGTCGGAGA: the TetR repression strength is 0.216.

TCCCTGCGAGTGGGCGAGA returned a TetR repression strength of 0.197.

In turn, TCCCACGCAGTGAATGAGA had a TetR repression strength of 0.275.

As to TCCCAAGAAGTGTGGGAGA, the TetR repression strength came to 0.0159.

In turn, TCCCCCAAAGTGGGGGAGA displayed a TetR repression strength of 0.213.

In turn, TCCCAAGGAGTCTGGGAGA yielded a TetR repression strength of 0.3.

Turning to TCCCGGTGAGTTGCTGAGA, the TetR repression strength stood at 0.123.

As to TCCCCCAAAGTCGCAGAGA, the TetR repression strength turned out to be 0.395.

Turning to TCCCGGGGAGTAGGGGAGA, the TetR repression strength amounted to 0.219.

For the sequence TCCCTGAGAGTCCTCGAGA, the TetR repression strength turned out to be 0.219.

Sequence TCCCCGGGAGTTCCGGAGA returned a TetR repression strength of 0.375.

Take TCCCGTCGAGTAATGGAGA: the TetR repression strength is 0.27.

TCCCGGCTAGTGTAAGAGA returned a TetR repression strength of 0.328.

The sequence TCCCTCGGAGTGGCAGAGA had a TetR repression strength of 0.182.

TCCCACGAAGTGCTCGAGA showed a TetR repression strength of 0.586.

In the case of TCCCTGCGAGTGGGTGAGA, the TetR repression strength is 0.442.

TCCCCGCCAGTGTACGAGA came in with a TetR repression strength of 0.233.

Regarding TCCCAGGCAGTACGAGAGA, the TetR repression strength was determined as 0.186.

As to TCCCAGTCAGTCGCTGAGA, the TetR repression strength worked out at 0.221.

In turn, TCCCAGCTAGTCGAGGAGA had a TetR repression strength of 0.185.

TCCCACTGAGTTTATGAGA registered a TetR repression strength of 0.277.

Turning to TCCCCCCGAGTGGGGGAGA, the TetR repression strength stood at 0.244.

For the sequence TCCCCTAAAGTGCGTGAGA, the TetR repression strength stood at 0.39.

TCCCGCGGAGTGGGAGAGA returned a TetR repression strength of 0.0921.

Take TCCCGAGAAGTTCAAGAGA: the TetR repression strength came to 0.311.

In turn, TCCCACATAGTGGTCGAGA had a TetR repression strength of 0.138.

TCCCCTCGAGTAAACGAGA gave a TetR repression strength of 0.335.

For TCCCGGATAGTTGGAGAGA, the TetR repression strength was found to be 0.393.

Turning to TCCCACTGAGTTGTGGAGA, the TetR repression strength turned out to be 0.162.

TCCCCGTTAGTGCAGGAGA showed a TetR repression strength of 0.258.

Consider TCCCTGCCAGTAGGCGAGA, for which the TetR repression strength was 0.207.

TCCCGGTTAGTGTGGGAGA returned a TetR repression strength of 0.217.

The sequence TCCCAACGAGTCCAGGAGA yielded a TetR repression strength of 0.135.

In the case of TCCCGTCAAGTGCTGGAGA, the TetR repression strength came out at 0.346.

As for TCCCTGTCAGTAGCAGAGA, the TetR repression strength was 0.278.

For the sequence TCCCTTGGAGTCGAAGAGA, the TetR repression strength was 0.107.

Regarding TCCCTCGGAGTAGCGGAGA, the TetR repression strength was found to be 0.221.

In turn, TCCCCCAGAGTGAGCGAGA displayed a TetR repression strength of 0.0671.

Sequence TCCCAGCTAGTTGTAGAGA yielded a TetR repression strength of 0.216.

As for TCCCCACAAGTCGGGGAGA, the TetR repression strength was 0.182.

On to TCCCAAGAAGTGCAAGAGA, for which the TetR repression strength stood at 0.383.

Consider TCCCAGTGAGTAGAAGAGA, for which the TetR repression strength came to 0.282.

The sequence TCCCGGGTAGTCGCTGAGA came in with a TetR repression strength of 0.251.

For the sequence TCCCCGGTAGTGGGTGAGA, the TetR repression strength is 0.164.

For TCCCTCGCAGTTGTTGAGA, the TetR repression strength stood at 0.0296.

Take TCCCTCTAAGTACGCGAGA: the TetR repression strength turned out to be 0.223.

As for TCCCTCGCAGTAGCGGAGA, the TetR repression strength came out at 0.45.

Turning to TCCCGCGAAGTCACCGAGA, the TetR repression strength is 0.0691.

Take TCCCTCAAAGTGCGTGAGA: the TetR repression strength stood at 0.296.

As for TCCCGTATAGTTATCGAGA, the TetR repression strength was 0.0468.

TCCCAATTAGTAACGGAGA showed a TetR repression strength of 0.0366.

The sequence TCCCTGTCAGTGACTGAGA displayed a TetR repression strength of 0.368.

With TCCCAGGGAGTAGAAGAGA, the TetR repression strength is 0.278.

In turn, TCCCTGTTAGTGTTGGAGA displayed a TetR repression strength of 0.228.

Consider TCCCGTCAAGTGATTGAGA, for which the TetR repression strength came to 0.233.

Consider TCCCAACAAGTGCACGAGA, for which the TetR repression strength worked out at 0.343.

Take TCCCGCGGAGTAAGTGAGA: the TetR repression strength is 0.111.

Turning to TCCCGAGGAGTCGTCGAGA, the TetR repression strength is 0.235.

On to TCCCTCACAGTCAGAGAGA, for which the TetR repression strength came out at 0.201.

With TCCCGGTTAGTGTAAGAGA, the TetR repression strength worked out at 0.253.

TCCCTAGCAGTGGGAGAGA came in with a TetR repression strength of 0.151.

Source of the values: a collection of fitness landscapes (doi:10.1038/s41467-024-54723-y).
